Laboratory results taken from PubChem BioAssay AID1347073 (National Center for Advancing Translational Sciences (NCATS), 2019).
The whole screen tested about 45,000 compounds, of which about 200 (0.44%) were called active. About 7% were inconclusive and are not listed. The call rests on the fitted dose curve; in most records, active means well fitted activation curve with a large enough effect; inconclusive means small, poorly fitted or top-dose-only effect; inactive means no such curve, though single readings can be large or run the other way. This is one part of the list.

experiment: qHTS of TDP-43 Inhibitors: NCGC Sytravon Library Screen; conditions: yeast TDP-43 toxicity rescue, BacTiter-Glo growth, 24 h; series mostly up to 46.1 µM; growth rescue (activation): at the top concentration; further: 0% is about no effect; nearly all actives have a fitted effect of over 55% in size
Summary of the method: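 TDP-43-expressing yeast, pregrown in raffinose, seeded at OD600 0.02 in galactose medium with compound for 24 hr at 30 deg C. Growth read by BacTiter-Glo luminescence, so rescue of toxicity appears as activation.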

SMILES | growth rescue (activation)
Cc1cc(OCc2cc(C(=O)NCc3csc(C(C)C)n3)no2)cc(C)c1Cl | inactive: 19.7%
CCc1sc(C(=O)N2CCc3ccccc32)cc1C | inactive: -9%
Cc1ccc(C(=O)NCCNC(=O)c2ccco2)cn1 | inactive: -5.08%
CC1(C(=O)NS(=O)(=O)c2cccc(Cl)c2)CCN1C(=O)Cc1cccs1 (centres undefined) | inactive: 0.583%
O=C(COC(=O)CNC(=O)c1ccccc1)Nc1ccccc1Cl | inactive: -6.41%
COc1cccc(C(NC(C)=O)c2nc(-c3cc4ccccc4o3)cs2)c1 (centres undefined) | inactive: 18.8%
COc1cc2c(cc1OC)CN(C(=O)COc1ccccc1C#N)CC2 | inactive: 18.4%
O=C(NCc1ccccn1)c1nc(-c2ccc(C(F)(F)F)cc2)no1 | inactive: -6.53%
O=C(c1cc(S(=O)(=O)N2CCCC2)c(Cl)cc1Cl)N1CCCC1 | inactive: 4.97%
COC(=O)c1ccc(CSc2nnc(C)n2N)o1 | inactive: 3.77%
Cc1ccc(O)c(NC(=O)c2noc3c2CCc2ccccc2-3)c1 | inactive: -5.32%
CCSc1n[nH]c(=S)s1 | inactive: 11.3%
Cc1nc(SCC(=O)N2CCOCC2)c2c(C)c(C)sc2n1 | inactive: 4.6%
CC1(C(=O)NS(=O)(=O)C2CC2)CCCN(C(=O)c2ccco2)C1 (centres undefined) | inactive: -2.61%
O=C(NCC1(N2CCCCC2)CCCCC1)c1ccc(S(=O)(=O)N2CCCC2)cc1 | inactive: 7.04%
CCOc1ncccc1C(=O)OCC(=O)N1CCc2ccccc21 | inactive: -7.95%
CCc1c(C)sc(NC(=O)/C=C/c2ccc3c(c2)OCO3)c1C(=O)OC | inactive: 29.7%
COc1ccc(NS(=O)(=O)c2cccc(C(=O)NN=Cc3ccc(O)c(OC)c3)c2)cc1 | inactive: 10.1%
CS(=O)(=O)c1cnc(-c2ccccc2)nc1-c1ccc(Cl)c(Cl)c1 | inactive: 3.73%
CCOc1ccccc1N(C(=O)c1ccco1)C(C(=O)NC1CCCC1)c1cccs1 (centres undefined) | inactive: 6.03%
COc1cc(/C=C(/C#N)c2ccccc2F)ccc1OCc1ccccc1 | inactive: 9.68%
C=CCn1c(SCC(=O)N2CCCCCC2)nc2ccccc2c1=O | inactive: 1.74%
COc1cccc(-c2cc(=O)[nH][nH]2)c1 | inactive: 3.31%
CC(O)c1n(C)c(Cl)c[n+]1C (centres undefined) | inactive: 17.2%
Cc1csc(N2CCCC2=O)n1 | inactive: -11.8%
CCN(C(=O)COC(=O)c1ccc(Cl)c(N)c1)C1CCS(=O)(=O)C1 (centres undefined) | inactive: 0.465%
O=c1[nH]c(C2CCN(S(=O)(=O)/C=C/c3ccccc3)CC2)nc2c1nnn2Cc1ccc(F)cc1 | inactive: 20%

SMILES | growth rescue (activation)
CCOC(=O)COc1ccc(C2CC(C)=NN2c2ccccc2)cc1 (centres undefined) | inactive: 12.8%
COc1cccc(C(O)c2ncc(-c3cccc(C(F)(F)F)c3)[nH]2)c1 (centres undefined) | inactive: 21.5%
COc1ccc(N2CCN(S(=O)(=O)c3ccc4oc(=O)ccc4c3)CC2)cc1 | inactive: 7.52%
CCCS(=O)(=O)N1CCCC(C(=O)NC(C)c2ccc3c(c2)OCCO3)C1 (centres undefined) | inactive: 6.04%
O=C(NNS(=O)(=O)c1cccc(Cl)c1Cl)c1cccc(S(=O)(=O)N2CCOCC2)c1 | inactive: 8.52%
CCOC(=O)c1ccccc1NC(=O)Cc1ccc(OC)c(S(=O)(=O)N2CCOCC2)c1 | inactive: -14.3%
Cc1cccc(C)c1NC(=O)CNC(=O)c1ccccc1 | inactive: 14.2%
CC1=C(C(=O)Nc2cc(C)cc(C)c2)C2(CCCCC2)OC1=O | inactive: 5.11%
Cc1ccc(C(=O)N2CCN(S(=O)(=O)N3CCCCCC3)CC2)cc1 | inactive: -14.9%
COC(=O)c1cc(NC(=S)NCc2ccc(Cl)cc2)cc(C(=O)OC)c1 | inactive: 24.3%
Cc1c(CCC(=O)N[C@@H](CC(C)C)C(=O)O)c(=O)oc2c(C)c3oc4c(c3cc12)CCCC4 | inactive: -5.6%
Cc1ccc(S(=O)(=O)NCC(C)n2cncn2)cc1C (centres undefined) | inactive: 5.49%
COc1cc(/C=N/O)cc(Cl)c1OC | inactive: 34.7%
COc1cccc(CNc2nc3cc(-c4cccc(C(F)(F)F)c4)sc3c(=O)n2C)c1 | inactive: 24.2%
Cc1ccsc1CN1CCC(C(=O)NCc2ccccc2Cl)CC1 | inactive: 5.38%
CC1(C(=O)NCc2ccc3c(c2)OCO3)CCN1CCc1ccccc1 (centres undefined) | inactive: -5.59%
CC(=O)NCc1ccc(S(=O)(=O)N2CCCN(C)CC2)cc1 | inactive: -2.04%
COc1ccc(NC(=S)N2CCCC(c3nc4ccc(C)cc4[nH]3)C2)c(OC)c1 (centres undefined) | inactive: 6.29%
O=C(N=Nc1c(O)[nH]c2ccccc12)c1cccs1 | inactive: -14.5%
CN(C)C(=O)N1CCN(C(=O)N2CCOCC2)CC1 | inactive: 24%
COc1ccc(C(=O)COC(=O)c2ccc3ccccc3n2)cc1 | inactive: 4.26%
CC[C@@H](C)[C@H](NC(=O)Cc1c(C)c2c(cc(C)c3c(C)coc32)oc1=O)C(=O)O | inactive: -11.3%
Cc1ccc(S(=O)(=O)/N=C2\C=C(NS(=O)(=O)c3ccccc3)C(=O)c3ccccc32)c(C)c1 | inactive: -0.127%
COCCCn1cnc2c(c1=O)c1nc3ccccc3nc1n2CCc1ccccc1 | inactive: 28.1%
Cc1ccccc1OCC(=O)Nc1ccc2c(c1)n(C)c(=O)n2C | inactive: 28.7%
CC(=O)NC(=S)Nc1ccccc1N1CCN(C(=O)c2ccccc2)CC1 | inactive: 16.8%
CN1CCN(C(=O)c2cc(COc3c(F)cccc3F)on2)CC1c1ccccc1 (centres undefined) | inactive: -81.7%
